From patent US20250075006A1 (SHANDONG SIMCERE BIOPHARMACEUTICAL, published 2025)
Changes are numbered by the printed parent chain.

T1: Cyno GUCY2C ECD (his-tagged cynomolgus monkey GUCY2C protein extracellular domain fusion protein) (cynomolgus monkey, UniProt P25092 part only (human entry))
T1 construct: also called monkey GUCY2C-his; monkey GUCY2C-His
T1 chain: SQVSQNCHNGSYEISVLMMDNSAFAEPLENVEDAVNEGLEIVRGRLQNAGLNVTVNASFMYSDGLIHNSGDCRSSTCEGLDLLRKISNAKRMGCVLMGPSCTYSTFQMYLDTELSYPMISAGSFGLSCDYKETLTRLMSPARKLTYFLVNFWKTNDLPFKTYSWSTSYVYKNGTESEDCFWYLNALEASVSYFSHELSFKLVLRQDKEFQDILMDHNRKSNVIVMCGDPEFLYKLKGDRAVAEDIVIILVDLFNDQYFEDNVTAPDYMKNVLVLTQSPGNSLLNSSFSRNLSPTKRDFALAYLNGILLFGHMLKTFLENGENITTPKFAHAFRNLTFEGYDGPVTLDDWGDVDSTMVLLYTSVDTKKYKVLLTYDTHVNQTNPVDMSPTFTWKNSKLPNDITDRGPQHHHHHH

B1: hu-Lab322H3-huFc (Fc fusion)
chain: EVQLVESGGGLVQPGRSLRLSCAASVLNLDYYAITWFRQAPGKEREGVSCIQGRGTSTNYADSVKGRFTISRDRAKKSAYLQMNSLRAEDTALYYCAVRYVSYGRNTACGLLPESVDHWGQGTMVTVSS[human IgG1 Fc with C220S (EU numbers) not listed]
B2: hu-Lab322H5-huFc (Fc fusion)
chain: B1 chain with L93T, M124Q
B3: hu-Lab322H6-huFc (Fc fusion)
chain: B1 chain with R87K, A88P
B4: hu-Lab322H4-huFc (Fc fusion)
chain: B1 chain with E1Q, V2L
B5: hu-Lab306H4-huFc (Fc fusion)
chain: EVQLVESGGGLVQPGGSLRLSCAASGFTLDDYAIGWFRQAPGKEREGVICLTSGGLPKYADSVKGRFTISRDNSKNTLYLQMNSLRAEDTAVYYCAASGATSRWNCPPQYDHWGQGTMVTVSS[human IgG1 Fc with C220S (EU numbers) not listed]
B6: hu-Lab306H7-huFc (Fc fusion)
chain: B5 chain with Q81R
B7: hu-Lab306H6-huFc (Fc fusion)
chain: B5 chain with S74A
B8: hu-Lab306H5-huFc (Fc fusion)
chain: B5 chain with A24T

Target: T1, Cyno GUCY2C ECD (his-tagged cynomolgus …)
Experiment: ELISA, plate coated with monkey GUCY2C-his, OD450

| EC50 (read off the curve) [nM] | Binder |
| --- | --- |
| ~0.08 | B1 |
| ~0.07 | B2 |
| ~0.07 | B3 |
| ~0.07 | B4 |

Target: T1, Cyno GUCY2C ECD (his-tagged cynomolgus …)
Experiment: ELISA, plate coated with monkey GUCY2C-his, OD450
Remark: another data set of the same source

| EC50 (read off the curve) [nM] | Binder |
| --- | --- |
| ~0.1 | B5 |
| ~0.07 | B6 |
| ~0.1 | B7 |
| ~0.1 | B8 |

Target: T2, human GUCY2C protein, full length, on cells (human, UniProt P25092 24-1073)
T2 construct: whole, on cells; also called endogenous tumor cells HT55
Experiment: FACS on 293T-hGUCY2C cells, MFI
Description: Then a complete medium was added to stop the digestion, and the cells were blown into a single cell suspension. After counting, the cells were centrifuged, and the cell pellet was resuspended to 2×10⁶ cells/mL in an FACS buffer (PBS+2% fetal bovine serum), and added to a 96-well FACS reaction plate at 100 μL/well. The plate was centrifuged, and the supernatant was discarded. An antibody sample to be tested (diluted in a 5-fold gradient from a starting concentration of 100 nM) was added at 50 μL/well and uniformly mixed with the cells, and the mixture was incubated at 4° C. for 1 h. […] The results were tested and analyzed by FACS (FACS Canto™, purchased from BD) after the plate was centrifuged and washed 3 times with a PBS buffer and resuspended with 100 μL of PBS. Data analysis was performed by software (FlowJo) to obtain the mean fluorescence intensity (MFI) of the cells. Then, analysis was performed by software (GraphPad Prism8), data were fitted, and EC50 values were calculated. As shown in A-C in FIG. 14, PF1608-hIgG1 binds strongly to GUCY2C at the protein level, but weakly at the cellular level. The humanized antibodies of the present application are all capable of binding effectively to recombinant cells expressing human GUCY2C protein and substantially maintain the equivalent binding ability of the recombinant antibodies.

| EC50 (read off the curve) [nM] | Binder |
| --- | --- |
| ~1 | B1 |
| ~1 | B2 |
| ~1 | B3 |
| ~1 | B4 |
| ~2 | B5 |
| ~2 | B6 |
| ~2 | B7 |
| ~2 | B8 |

Target: T3, Human GUCY2C ECD (his-tagged human GUCY2C protein extracellular domain fusion protein) (human, UniProt P25092 part only)
T3 construct: also called human GUCY2C-his; human GUCY2C-His
Experiment: ELISA, plate coated with human GUCY2C-his, OD450
Description: To assay the binding activity of the humanized antibodies to human GUCY2C-his protein, a human GUCY2C-his protein was diluted with PBS to a final concentration of 2 μg/mL and then added to a 96-well ELISA plate at 50 μL/well. The plate was sealed with a plastic film and incubated at 4° C. overnight. The next day, the plate was washed 2 times with PBST, and a blocking buffer [PBS+2% (w/w) BSA] was added for blocking at room temperature for 2 h. The blocking buffer was discarded, and the plate was washed 2 times with PBST. An antibody to be tested or a control antibody diluted in a 1:3 gradient from a starting concentration of 100 nM was added at 50 μL/well. After incubation at 37° C. for 1 h, the plate was washed 3 times with PBST. A horseradish peroxidase (HRP)—labeled secondary antibody (purchased from Merck, Cat. No. AP113P) was added for incubation at 37° C. for 1 h, and the plate was washed 5 times with PBST. A TMB substrate was added at 50 µL/well for incubation at room temperature for 5-10 min, and then a stop solution (1.0 M HCl) was added at 50 μL/well. OD450 nm values were read using an ELISA plate reader (Multimode Plate Reader, EnSight, purchased from Perkin Elmer).

| EC50 (read off the curve) [nM] | Binder |
| --- | --- |
| ~0.06 | B1 |
| ~0.06 | B2 |
| ~0.06 | B3 |
| ~0.06 | B4 |

Target: T3, Human GUCY2C ECD (his-tagged human …)
Experiment: SPR Biacore, antibody on Protein A, antigen injected
Description: The strength of antibody-antigen binding was assayed with a BIAcore 8K instrument using a Protein A capture method. First, Protein A was immobilized onto a CM4 chip (purchased from GE, BR-1005-34) using an amino coupling method. According to the instruction of the Amine Coupling Kit (purchased from GE, BR100633), NHS and EDC were mixed with HBS-EP+pH 7.4 as a mobile phase to activate the chip for about 600 s; the Protein A was diluted to 50 μg/mL with 10 mM sodium acetate (pH 4.5) and injected for 600 s, and finally, the remaining activated sites were blocked with ethanolamine. Then, the affinity of the antibody for the antigen was assayed using a multi-cycle kinetic method; in each cycle, first, the antibody to be tested was captured using the Protein A chip, and then a single concentration of antigen protein was injected. The association and dissociation processes of the antibody with the antigen protein were recorded, and finally, the chip was regenerated using Glycine pH 1.5, wherein the mobile phase was HBS-EP+(10 mM HEPES, 150 mM NaCl, 3 mM EDTA, 0.05% surfactant P20), the flow rate was 30 μL/min, the regeneration time was 30 s, and the assay temperature was 25° C. Finally, according to a 1:1 binding model, the data were analyzed, and the antibody-antigen binding kinetics parameters, including the association rate constant Ka, the dissociation rate constant Kd, the equilibrium dissociation constant KD, and the maximum binding signal Rmax, were fitted.
(§1) After the finally obtained various humanized antibodies were expressed and purified, the affinities of the humanized antibodies for the human and monkey GUCY2C proteins were separately assayed according to the method in Example 4.6.

| Kd [nM] | koff [s⁻¹] | kon [M⁻¹ s⁻¹] | Binder |
| --- | --- | --- | --- |
| 18.8 | 0.000155 | 8240 | B1 |
| 19.5 | 0.000159 | 8160 | B2 |
| 18.7 | 0.000159 | 8510 | B3 |
| 7.28 | 5.52e-05 | 7580 | B4 |
| 8.34 | 0.000929 | 111000 | B5 |
| 8.36 | 0.001 | 120000 | B6 |
| 9.87 | 0.00109 | 111000 | B7 |
| 7.19 | 0.000786 | 109000 | B8 |

Target: T1, Cyno GUCY2C ECD (his-tagged cynomolgus …)
Experiment: BLI Gator, antibody on anti-human Fc probe, antigen in solution
Description: (§2) Next, we measured the affinity of the recombinant antibody by another method, and the specific procedures were as follows: the binding strength of the antibody to the antigen was assayed by acquiring and analyzing the signal change of the reflection interference spectrum on the surface of the optical probe by using thin film interference technology. First, the probe was equilibrated for 300 s with HBS-T+pH 7.4 (0.02% tween) as the mobile phase. 2 μg/mL of the antibody to be tested was captured by an anti-human FC probe (purchased from ProbeLife, PL168-160003) for 240 s, and then antigen proteins with the concentration of 200 nM and diluted two-fold were injected. Kon for 300 s and Koff for 600 s. The association and dissociation processes of the antibody with the antigen protein were recorded, and finally, the chip was regenerated using Glycine pH 2.0 (purchased from GE), wherein the mobile phase was HBS-T+pH 7.4 (0.02% tween), the regeneration time was 5 s, and the assay temperature was 30° C. Finally, according to a 1:1 binding model, the data were analyzed, and the antibody-antigen binding kinetics parameters, including the association rate constant Ka, the dissociation rate constant Kd, the equilibrium dissociation constant KD, and the maximum binding signal Rmax, were fitted. The association rate (Ka), dissociation rate (Kd), and binding affinity (KD) of the recombinant antibodies with the human GUCY2C and monkey GUCY2C proteins are shown in Table 6.
as §1

| Kd [nM] | koff [s⁻¹] | kon [M⁻¹ s⁻¹] | Binder |
| --- | --- | --- | --- |
| 1.27 | 0.000275 | 216000 | B1 |
| 1.36 | 0.000285 | 210000 | B2 |
| 1.31 | 0.000278 | 212000 | B3 |
| 0.529 | 0.000109 | 207000 | B4 |
| 1.53 | 0.000479 | 313000 | B5 |
| 1.38 | 0.000415 | 301000 | B6 |
| 1.68 | 0.000519 | 309000 | B7 |
| 1.44 | 0.000431 | 299000 | B8 |

Target: T3, Human GUCY2C ECD (his-tagged human …)
Experiment: as above
Description: as §2, §1

| Kd [nM] | koff [s⁻¹] | kon [M⁻¹ s⁻¹] | Binder |
| --- | --- | --- | --- |
| 0.717 | 0.000154 | 215000 | B1 |
| 0.782 | 0.000173 | 221000 | B2 |
| 0.797 | 0.000179 | 224000 | B3 |
| 0.334 | 6.86e-05 | 205000 | B4 |
| 1.92 | 0.000513 | 267000 | B5 |
| 2.05 | 0.000554 | 271000 | B6 |
| 2.01 | 0.000564 | 281000 | B7 |
| 1.77 | 0.000479 | 270000 | B8 |

Target: T2, human GUCY2C protein, full length, on …
Experiment: FACS on HT55 tumor cells (endogenous GUCY2C), MFI

| EC50 (read off the curve) [nM] | Binder |
| --- | --- |
| ~1 | B5 |
| ~1 | B6 |
| ~1 | B7 |
| ~1 | B8 |
